Potency data for 91 compounds are collected here from PubChem BioAssay AID360 (National Center for Advancing Translational Sciences (NCATS), 2006).

Out of some 48,000 compounds screened, about 550 (1.1%) were called active. Roughly 4% stayed inconclusive and do not appear here. No stated cut-off is given here; in the data, active means potency below about 15 µM; inconclusive means mostly about 16 µM to 33 µM; inactive means weaker than that. Some of the results follow.
Potency means the concentration at half of the fitted maximal effect.

Sequence of UniProt P04062 (P04062 whole entry, looked up): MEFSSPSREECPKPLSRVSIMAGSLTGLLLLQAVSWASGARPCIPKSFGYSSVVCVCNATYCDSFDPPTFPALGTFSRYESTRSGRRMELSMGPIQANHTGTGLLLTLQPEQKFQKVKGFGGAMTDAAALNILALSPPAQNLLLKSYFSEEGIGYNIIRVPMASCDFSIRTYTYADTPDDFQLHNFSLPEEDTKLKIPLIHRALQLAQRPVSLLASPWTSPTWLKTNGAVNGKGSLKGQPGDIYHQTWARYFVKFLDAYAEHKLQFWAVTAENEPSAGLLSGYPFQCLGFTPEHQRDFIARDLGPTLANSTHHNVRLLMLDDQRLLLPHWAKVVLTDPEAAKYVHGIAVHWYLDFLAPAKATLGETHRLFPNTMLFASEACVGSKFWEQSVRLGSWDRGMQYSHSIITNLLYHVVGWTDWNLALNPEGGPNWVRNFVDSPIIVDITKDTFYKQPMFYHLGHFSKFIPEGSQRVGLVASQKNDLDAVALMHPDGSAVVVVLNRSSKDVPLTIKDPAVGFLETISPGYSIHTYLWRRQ

In this test the target is Lysosomal acid glucosylceramidase (Homo sapiens) (UniProt P04062). Briefly: Glucocerebrosidase.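 Further: the screen sought inhibitors.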 The conditions noted are these: purified enzyme, resorufin glucoside fluorescence (screen aimed at inhibitors), 20 min. The method in brief:
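Normal human glucocerebrosidase (0.2 nM final) was assayed with resorufin β-D-glucopyranoside (30 uM final) in 50mM citric acid/KH2PO4, 10mM sodium taurocholate, 0.01% tween-20, pH 5.9. Compounds were titrated; fluorescence (Ex 548, Em 600) read after 20 min at RT.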
Take `CC(C)c1nc(SCC(=O)NCc2ccccc2)n[nH]1`: the Potency was inactive: > 76.9 µM.
With `O=C(c1ccco1)N1CCN(C(c2ccccc2Cl)c2nnnn2Cc2ccco2)CC1` (stereo unspecified), the Potency was inactive: > 76.9 µM.
With `Cc1cc(=O)c2ccccc2s1`, the Potency is inactive: > 76.9 µM.
Turning to `CCn1cc(Br)c(C(=O)Nc2ccc(C(=O)OC(C)C)cc2)n1`, the Potency is inactive: > 76.9 µM.
As for `COc1cc(C2Nc3cccc4cccc(c34)N2)ccc1OC(C)=O`, the Potency was inactive: > 76.9 µM.
As for `O=C(O)CN1C(=O)C2(OCCCO2)c2ccccc21`, the Potency is inactive: > 76.9 µM.
Consider `Cc1nccn1-c1c2c(c(C#N)c3nc4ccccc4n13)CCCC2`, for which the Potency was inactive: > 76.9 µM.
The value for `O=c1cc(-c2ccc(Cl)c(Cl)c2)[nH][nH]1` was inactive: > 76.9 µM.
The value for `CN(C)S(=O)(=O)c1ccc(C(=O)Nc2nnc(Cc3ccccc3)s2)cc1` was inactive: > 76.9 µM; that for `COC(=O)CN1C(=O)N(c2ccccc2)C(N(O)C(=O)Nc2ccccc2)C1(C)C` (stereo unspecified) was inactive: > 76.9 µM; that for `N#CC1=C(N)Oc2n[nH]c(-c3ccc(F)cc3)c2C1c1cccc(OC(=O)N2CCOCC2)c1` (stereo unspecified) was inactive: > 76.9 µM.
On to `CC1(C)NC(=O)N(CCOc2cccc(Oc3ccccc3)c2)C1=O`, for which the Potency was inactive: > 76.9 µM.
Consider `COc1cc2c(cc1OC)C1=C(C#N)COCN1CC2`, for which the Potency is inactive: > 76.9 µM.
For `Cc1ccc(OCCn2nc3ccccc3n2)c(C)c1`, the Potency was inactive: > 76.9 µM.
As for `Cc1nc2ccccc2c(=O)n1CC(=O)N1CCOCC1`, the Potency is inactive: > 76.9 µM.
The value for `O=C(O)CCC(=O)N1CCN(c2ccc(C(=O)c3ccc(F)cc3)cc2)CC1` was inactive: > 76.9 µM.
For `Cn1nnnc1SCC(=O)N1c2ccccc2Sc2ccccc21`, the Potency result was “inactive”.
The value for `Cc1ccc2cc(C(c3nnnn3C(C)(C)C)N3CCCC3)c(=O)[nH]c2c1C` (stereo unspecified) was inactive: > 76.9 µM; that for `COc1ccc(S(=O)(=O)N2CCCC2C(=O)Nc2nc3c(s2)CCCC3)cc1` (stereo unspecified) was inactive: > 76.9 µM.
In the case of `Cc1ccc(CSC2=Nc3ccccc3C3=NC(CC(=O)NCc4ccco4)C(=O)N23)cc1` (stereo unspecified), the Potency is inactive: > 76.9 µM.
As for `O=C(CNC(=O)c1ccccc1)NC1(C(=O)NC2CCCC2)CCCCC1`, the Potency was inactive: > 76.9 µM.
Regarding `CCOc1ccc(CNC(=O)NS(=O)(=O)c2ccc(OC)cc2)cc1`, the Potency was inactive: > 76.9 µM.
As for `O=C(CCCCCN1C(=O)c2ccccc2C1=O)NC1CCCC1`, the figure is inactive: > 76.9 µM.
In the case of `COC(=O)CCP(=O)(O)Cc1ccccc1CP(=O)(O)CCC(=O)OC`, the Potency was inactive: > 76.9 µM.
With `C=C(C)CSc1nnc([C@@H](NC(=O)OC(C)(C)C)C(C)CC)o1` (stereo partly specified), the Potency was inactive: > 76.9 µM.
On to `CCCOc1ccc(/C(O)=C2\C(=O)C(=O)N(CCCN(C)C)C23C(=O)N(C)c2ccccc23)cc1` (stereo unspecified), for which the Potency was inactive: > 76.9 µM.
In the case of `CCOC(=O)C1CCCN(C(=O)CS(=O)(=O)Cc2ccccc2)C1` (stereo unspecified), the Potency was inactive: > 76.9 µM.
As to `O=C(Cn1c(CN2CCCCC2)nc2ccccc2c1=O)Nc1ccccc1`, the Potency was inactive: > 76.9 µM.
In the case of `CCC(=O)Nc1ccc(S(=O)(=O)c2ccc(NC(=O)CC)cc2)cc1`, the Potency was inactive: > 76.9 µM.
As for `C=CCn1c(C)cc(C(=O)COC(=O)C2CC(=O)N(Cc3ccccc3)C2)c1C` (stereo unspecified), the Potency is inactive: > 76.9 µM.
As for `O=C(NCc1ccc2c(c1)OCO2)C1CCN(C(=O)Nc2ccc(Cl)cc2)CC1`, the figure is inactive: > 76.9 µM.
Turning to `COc1cc(S(=O)(=O)N2CCOCC2)ccc1NC(=O)c1cc2c(s1)CCC2`, the Potency is inactive: > 76.9 µM.
For `CCCOc1cc(CC(=O)NCc2ccco2)ccc1OC`, the Potency is inactive: > 76.9 µM.
As for `CCOC(=O)NC(=O)CSc1nc(C)cc(C(F)(F)F)c1C#N`, the figure is inactive: > 76.9 µM; as for `COC(=O)Nc1nn(Cc2ccccc2F)cc1Br`, inactive: > 76.9 µM; as for `COc1ccc(CN2CCN(c3cc(C)nc4c5c(C)cc(C)nc5nn34)CC2)cc1F`, inactive: > 76.9 µM.
Regarding `O=C(NCCOC(=O)c1cccs1)c1cccnc1`, the Potency was inactive: > 76.9 µM.
On to `CCc1nnc(NC(=O)CSc2nnc3ncccn23)s1`, for which the Potency was inactive: > 76.9 µM.
As to `COCCNC(=O)c1cc(-c2ccc(OC)c(OC)c2)on1`, the Potency was inactive: > 76.9 µM.
For `COc1ccc(C2CC(C(F)(F)F)n3nc(C(=O)N(C)Cc4cn(C)nc4C)c(Cl)c3N2)cc1` (stereo unspecified), the Potency is inactive: > 76.9 µM.
`O=C(Nc1ccc(O)c(C(=O)O)c1)c1ccc2c(c1)C(=O)N(CC1CCCO1)C2=O` (stereo unspecified): the Potency was inactive: > 76.9 µM.
With `O=C(CSc1nnc(-c2ccncc2)n1C1CCCCC1)Nc1cccc(O)c1`, the Potency is inactive: > 76.9 µM.
Regarding `Cc1ccc(Nc2nc(N)nc(CSc3nccn3C)n2)c(C)c1`, the Potency is inactive: > 76.9 µM.
The value for `CCn1cc2c(c1-c1cccc(C)c1)c(=O)n(C)c(=O)n2C` was inactive: > 76.9 µM; that for `Cc1ccc(S(=O)(=O)Nc2ccc3nc(-c4cccn4C)[nH]c3c2)cc1` was inactive: > 76.9 µM.
In the case of `COc1ccc2c(c1)C1(Nc3ccccc3-c3nc4ccccc4n31)C(=O)N2` (stereo unspecified), the Potency is inactive: > 76.9 µM.
For `CCc1nnc(NC(=O)C2CC(=O)N(c3ccc(C)cc3)C2)s1` (stereo unspecified), the Potency is inactive: > 76.9 µM.
`CCOC(=O)C(C)n1cnc2c(oc3ccccc32)c1=O` (stereo unspecified): the Potency was inactive: > 76.9 µM.
With `CCOC(=O)C(CC)Sc1nnc2n1C(C)(C)Cc1ccccc1-2` (stereo unspecified), the Potency is inactive: > 76.9 µM.
Consider `Cc1cc(C)c2c(n1)nn1c(-n3ccnc3)cc(C)nc21`, for which the Potency is inactive: > 76.9 µM.
`COc1ccc(C(=O)Nc2cc(Cl)cc(Cl)c2)c(OC)n1`: the Potency was inactive: > 76.9 µM.
As to `CCCC1CCC(C(=O)Nn2cnc3ccccc3c2=O)CC1` (stereo unspecified), the Potency is inactive: > 76.9 µM.
For the compound `COc1ccc(C(=O)OCC(=O)NCc2ccco2)cc1OC`, the Potency is inactive: > 76.9 µM.
Regarding `Cc1ccc(-c2nc(C3CCN(S(C)(=O)=O)CC3)no2)cc1`, the Potency is inactive: > 76.9 µM.
Consider `COc1ccc(-c2c3c(=O)n(C)c(=O)n(C)c3cn2-c2ccccc2)cc1`, for which the Potency is inactive: > 76.9 µM.
In the case of `CCN(CCCNC(=O)c1cn(CC)c2ccc(S(=O)(=O)N(C)C)cc2c1=O)c1cccc(C)c1`, the Potency is inactive: > 76.9 µM.
Turning to `Cc1cc(C)c(-c2cc(NC(=O)CSc3nncn3C)n(-c3ccccc3)n2)cc1C`, the Potency was inactive: > 76.9 µM.
On to `Cc1ccc(-c2nc(C)sc2CC(=O)NCc2ccco2)cc1`, for which the Potency was inactive: > 76.9 µM.
Turning to `Cc1ccc(C(=O)COC(=O)CNC(=O)c2ccco2)cc1`, the Potency is inactive: > 76.9 µM.
As for `Cc1ccc(S(=O)(=O)N2CCCC2C(=O)NCCc2nc3ccccc3[nH]2)cc1` (stereo unspecified), the figure is inactive: > 76.9 µM.
As to `C/C(Cl)=C/Cn1c(NCCCn2ccnc2)nc2c1c(=O)[nH]c(=O)n2C`, the Potency is inactive: > 76.9 µM.
Turning to `COc1ccc(S(=O)(=O)Nc2ccc3c(c2)OCO3)cc1Cl`, the Potency result was “inactive”.
Take `COC(=O)c1cccc(CSc2nnc(-c3ccco3)n2-c2ccccc2)c1`: the Potency is inactive: > 76.9 µM.
`O=C(Nc1ccccc1)Nc1cccc2cccnc12`: the Potency was inactive: > 76.9 µM.
With `COc1ccccc1CC(=O)NC1CC(C)(C)NC(C)(C)C1`, the Potency is inactive: > 76.9 µM.
With `O=C(O)c1cc2c([nH]c1=O)CCCC2`, the Potency was inactive: > 76.9 µM.
On to `c1ccc(OCc2nc(-c3ccccc3)no2)cc1`, for which the Potency was inactive: > 76.9 µM.
With `CC1Cc2ccccc2N1C(=O)CSc1nc(-c2ccco2)cc(C(F)(F)F)n1` (stereo unspecified), the Potency is inactive: > 76.9 µM.
The value for `COc1ccc(OC)c(C(=O)CSc2nnc(-c3ccc(OC)c(OC)c3)o2)c1` was inactive: > 76.9 µM; that for `O=C(CSc1n[nH]c(C2CCCC2)n1)NC1CCCC1` was inactive: > 76.9 µM.
`CCn1c(=O)cc(OCC(=O)Nc2ccc(C)cn2)c2ccccc21`: the Potency is inactive: > 76.9 µM.
The value for `CSc1ccccc1NC(=O)c1cccnc1` was inactive: > 76.9 µM; that for `COc1ccc(CN2C(=O)c3ccccc3C2C(=O)NCc2cccnc2)c(OC)c1` (stereo unspecified) was inactive: > 76.9 µM; that for `CCOC(=O)c1cnc(-c2ccccc2)nc1N` was inactive: > 76.9 µM.
For the compound `O=C(NCCN1CCOCC1)C1CCC(=O)N1C1CCCCC1` (stereo unspecified), the Potency is inactive: > 76.9 µM.
As for `CC(=O)NC1C2CN3CCN(C2)CC1(Cc1ccccc1)C3` (stereo unspecified), the figure is inactive: > 76.9 µM; as for `Cc1cc(C)n(-c2ncnc3c2oc2ccccc23)n1`, inactive: > 76.9 µM.
On to `O=C(CC1CCCCC1)c1c(O)c2ccccc2oc1=O`, for which the Potency is inactive: > 76.9 µM.
In the case of `c1ccc2c(c1)CNc1ccccc1C2`, the Potency is inactive: > 76.9 µM.
Regarding `Cc1cc(Nc2cccc(F)c2)nc(-c2ccccc2O)n1`, the Potency result is “inactive”.
As to `Cc1ccc(C)c(OCC(=O)Nc2nonc2NC(=O)COc2cc(C)ccc2C)c1`, the Potency was inactive: > 76.9 µM.
Turning to `COC(=O)c1ccc(OC)c(CSc2nnc(COc3cccc(C)c3)o2)c1`, the Potency is inactive: > 76.9 µM.
Consider `Cc1ccc2[nH]c(=O)c(CN(Cc3ccco3)C(=O)c3cccs3)cc2c1`, for which the Potency is inactive: > 76.9 µM.
In the case of `Cc1cc(NC(=O)c2cccc(F)c2)ncc1NC(=O)c1ccco1`, the Potency is inactive: > 76.9 µM.
On to `C/C(O)=C(/N=O)C(=O)Nc1ccccc1`, for which the Potency is inactive: > 76.9 µM.
As for `CCOc1ccc(-c2nc(-c3ccc(OC)c(OC)c3)no2)cc1OCC`, the figure is inactive: > 76.9 µM.
Regarding `O=C(CSc1nnc(C2CC2)n1Cc1ccccc1)c1cc2ccccc2o1`, the Potency is inactive: > 76.9 µM.
As for `CSc1nc(-c2ccccc2)ccc1C(N)=O`, the Potency was inactive: > 76.9 µM.
Take `CCCCNc1c(C(=O)OCC)c(=O)[nH]c2ccccc12`: the Potency is inactive: > 76.9 µM.
As for `O=c1cc(CN2CCN(C/C=C/c3ccccc3)CC2)c2cc(O)ccc2o1`, the Potency is inactive: > 76.9 µM.
The value for `COc1cccc(NC(=O)c2cn(C)c(=O)c3cc(OC)c(OC)cc23)c1` was inactive: > 76.9 µM.
